For assay [1], the system named is HSkMC (human skeletal muscle cells). As to the kind of experiment: cytotoxicity call (relative viability < 0.9). Particulars: 10 µM.
Assay [2] concerns HepG2. As to the kind of experiment: cytotoxicity call (relative viability < 0.9). Particulars: 10 µM.
The subject of assay [3] is S. aureus RN4220. As to the kind of experiment: growth inhibition call (relative growth <= 0.2). Particulars: 50 µM.

This is one part of the list.

With `COc1ccc(NC(=O)N(C)C[C@H]2OCCCC[C@H](C)Oc3ccc(NC(=O)c4ccccc4)cc3C(=O)N([C@H](C)CO)C[C@H]2C)cc1`, the cytotoxicity call in assay [1] and in assay [2] was “inactive” in each case. The growth inhibition call in assay [3] was “inactive”.
Take `C[C@H](CO)N1C[C@H](C)[C@H](CN(C)S(=O)(=O)c2cn(C)cn2)Oc2ccc(NC(=O)c3ccncc3)cc2C1=O`: the cytotoxicity call in assay [1] and in assay [2] was “inactive” throughout. Also, the growth inhibition call in assay [3] was “inactive”.
For `C[C@@H]1CN([C@H](C)CO)C(=O)c2cc(NC(=O)Nc3ccc4c(c3)OCO4)ccc2O[C@H]1CN(C)S(C)(=O)=O`, the cytotoxicity call in assay [1] and in assay [2] was “inactive” each time. Moreover, the growth inhibition call in assay [3] was “inactive”.
For `Cc1ccc(S(=O)(=O)Nc2ccc3c(c2)C(=O)N([C@H](C)CO)C[C@H](C)[C@@H](CN(C)C(=O)Nc2ccccc2)OCCCC[C@@H](C)O3)cc1`, the cytotoxicity call in assay [1] and in assay [2] was “inactive” in each case. For the same compound, the growth inhibition call in assay [3] is “inactive”.
Consider `Cc1cc(C(=O)Nc2cccc3c2O[C@@H](CN(C)S(=O)(=O)c2ccc(Cl)cc2)[C@H](C)CN([C@@H](C)CO)C3=O)n(C)n1`, for which the cytotoxicity call in assay [1] and in assay [2] was “inactive” throughout. For the same compound, in assay [3], the growth inhibition call was “inactive”.
`C[C@@H]1CN([C@H](C)CO)C(=O)c2cc(NC(=O)C3CCCCC3)ccc2O[C@H]1CN(C)Cc1ccc(C(F)(F)F)cc1`: the cytotoxicity call in assay [1] and in assay [2] was “inactive” throughout. Also, the growth inhibition call in assay [3] was “inactive”.
`C[C@H](CO)N1C[C@H](C)[C@@H](CN(C)S(=O)(=O)c2ccccc2)Oc2ccc(NS(=O)(=O)c3ccc(F)cc3)cc2C1=O`: the cytotoxicity call in assay [1] and in assay [2] was “inactive” in each case. For the same compound, the growth inhibition call in assay [3] was “inactive”.
For `COc1ccc(/C=C/CN2CCC(C(=O)N[C@@H](c3ccc(-c4ccccc4)cc3)c3cnccn3)CC2)cc1`, the cytotoxicity call in assay [1] is “inactive”. The cytotoxicity call in assay [2] is “active”. Also, the growth inhibition call in assay [3] is “active”.
In the case of `COc1cccc2c1C(=O)c1c(O)c3c(c(O)c1C2=O)C[C@@](O)(C(=O)CO)C[C@@H]3O[C@H]1C[C@H](N)[C@H](O)[C@H](C)O1`, the cytotoxicity call in assay [1] and in assay [2] was “active” in each case. The growth inhibition call in assay [3] was “active”.
Consider `CC(=O)NC1C(NC(=N)N)C=C(C(=O)O)OC1C(O)C(O)CO` (centres undefined), for which the cytotoxicity call in assay [1] and in assay [2] was “inactive” throughout. Besides, the growth inhibition call in assay [3] was “inactive”.
With `C[C@@H]1CN([C@H](C)CO)C(=O)c2cc(NC(=O)Nc3cccc4ccccc34)ccc2O[C@H]1CN(C)S(=O)(=O)c1cccs1`, the cytotoxicity call in assay [1] and in assay [2] was “inactive” in each case. Further, in assay [3], the growth inhibition call was “inactive”.
Consider `C[C@H](CO)N1C[C@H](C)[C@@H](CN(C)C(=O)Nc2ccc3c(c2)OCO3)Oc2ccc(NS(=O)(=O)c3cn(C)cn3)cc2C1=O`, for which the cytotoxicity call in assay [1] and in assay [2] was “inactive” in each case. Also, the growth inhibition call in assay [3] is “inactive”.
Turning to `C[C@H]1CN([C@@H](C)CO)C(=O)CCCn2nncc2CO[C@@H]1CN(C)S(C)(=O)=O`, the cytotoxicity call in assay [1] and in assay [2] was “inactive” each time. Besides, the growth inhibition call in assay [3] is “inactive”.
Consider `CCCC#Cc1ccc2c(c1)O[C@@H](CN(C)Cc1ccc3c(c1)OCO3)[C@H](C)CN([C@H](C)CO)S2(=O)=O`, for which the cytotoxicity call in assay [1] and in assay [2] was “inactive” each time. For the same compound, the growth inhibition call in assay [3] is “inactive”.
As for `C[C@H](CO)N1C[C@H](C)[C@@H](CN(C)C(=O)CN(C)C)Oc2cc(C#Cc3ccccc3)ccc2S1(=O)=O`, in assay [1], the cytotoxicity call was “inactive”. Besides, the cytotoxicity call in assay [2] was “active”. Further, the growth inhibition call in assay [3] was “inactive”.
As for `C[C@@H]1CN([C@H](C)CO)C(=O)c2cc(C#Cc3ccccc3)cnc2O[C@@H]1CN(C)S(=O)(=O)c1ccccc1F`, the cytotoxicity call in assay [1] and in assay [2] was “inactive” throughout. Besides, in assay [3], the growth inhibition call is “inactive”.
On to `C[C@@H]1CN([C@@H](C)CO)C(=O)c2cc(NC(=O)Nc3ccc4c(c3)OCO4)ccc2O[C@H]1CN(C)Cc1ccc(C(=O)Nc2ccccc2N)cc1`, for which the cytotoxicity call in assay [1] and in assay [2] was “inactive” each time. Moreover, the growth inhibition call in assay [3] was “inactive”.
Turning to `COc1cccc(NC(=O)N(C)C[C@@H]2Oc3cc(C#Cc4ccncc4)ccc3S(=O)(=O)N([C@@H](C)CO)C[C@@H]2C)c1`, the cytotoxicity call in assay [1] is “inactive”. Also, the cytotoxicity call in assay [2] is “active”. The growth inhibition call in assay [3] is “inactive”.
As for `C[C@H](CO)N1C[C@H](C)[C@@H](CN(C)Cc2ccc(Oc3ccccc3)cc2)Oc2ccc(NC(=O)C3CC3)cc2C1=O`, the cytotoxicity call in assay [1] and in assay [2] was “inactive” throughout. Further, the growth inhibition call in assay [3] is “inactive”.
Take `C[C@H](CO)N1C[C@H](C)[C@H](CN(C)S(C)(=O)=O)Oc2ccc(NS(C)(=O)=O)cc2C1=O`: the cytotoxicity call in assay [1] and in assay [2] was “inactive” throughout. In addition, the growth inhibition call in assay [3] was “inactive”.
As for `C[C@H](CO)N1C[C@H](C)[C@H](CN(C)C(=O)Nc2cccc(C(F)(F)F)c2)OCc2cn(nn2)CCCC1=O`, the cytotoxicity call in assay [1] and in assay [2] was “inactive” each time. The growth inhibition call in assay [3] is “inactive”.
Turning to `Cc1ccc(S[C@]2(C(=O)O)CC(=O)N(C3Cc4ccccc4C3)[C@@H]2c2ccc(CO)cc2I)cc1`, the cytotoxicity call in assay [1] and in assay [2] was “inactive” in each case. The growth inhibition call in assay [3] was “inactive”.
For the compound `C[C@H](CO)N1C[C@H](C)[C@@H](CN(C)Cc2ccc(Cl)c(Cl)c2)Oc2ccc(NC(=O)CCC(F)(F)F)cc2C1=O`, the cytotoxicity call in assay [1] and in assay [2] was “inactive” throughout. The growth inhibition call in assay [3] is “inactive”.

The record behind these values is the antibiotic and cytotoxicity screens of Wong et al. (2023).
